Data published in paper PMC9911399, “Two distinct binding modes provide the RNA-binding protein RbFox with extraordinary sequence specificity”.
Substitutions are numbered along the chain they refer to; changes in the protein carry UniProt numbers. Some of the results follow.

T1: RBFOX1 RRM RbFoxmut (Fox-RRM*) (Homo sapiens, UniProt Q9NWB1 109-208, R118D;E147R;N151S;E152T)
T1 sequence: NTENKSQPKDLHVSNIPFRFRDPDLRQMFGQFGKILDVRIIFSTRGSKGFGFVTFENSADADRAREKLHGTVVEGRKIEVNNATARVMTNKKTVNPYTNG

B1: ACGGCCG (DNA:RNA)
RNA: GGGAGACCGGAAUUCAGAUUGUCCACGGCCGUUAAAUCCCGUCGUAGCCACCA
DNA 1: CAATCTGAATTCCGGTCTCCC
DNA 2: TGGTGGCTACGACGGGATT
B2: CCGAGUU (DNA:RNA)
RNA: B1 RNA with A25C, G28A, C29G, C30U, G31U
DNA 1: CAATCTGAATTCCGGTCTCCC
DNA 2: TGGTGGCTACGACGGGATT
B3: UCGGAUC (DNA:RNA)
RNA: B1 RNA with A25U, C29A, C30U, G31C
DNA 1: CAATCTGAATTCCGGTCTCCC
DNA 2: TGGTGGCTACGACGGGATT
B4: CGGACUC (DNA:RNA)
RNA: B1 RNA with A25C, C26G, G28A, C30U, G31C
DNA 1: CAATCTGAATTCCGGTCTCCC
DNA 2: TGGTGGCTACGACGGGATT
B5: GGCAUCU (DNA:RNA)
RNA: B1 RNA with A25G, C26G, G27C, G28A, C29U, G31U
DNA 1: CAATCTGAATTCCGGTCTCCC
DNA 2: TGGTGGCTACGACGGGATT
B6: GCAAAAG (DNA:RNA)
RNA: B1 RNA with A25G, G27A, G28A, C29A, C30A
DNA 1: CAATCTGAATTCCGGTCTCCC
DNA 2: TGGTGGCTACGACGGGATT
B7: UGUUUAC (DNA:RNA)
RNA: GGGAGACCGGAAUUCAGAUUGUCCUGUUUACUUAAAUCCCGUCGUAGCCACCA
DNA 1: CAATCTGAATTCCGGTCTCCC
DNA 2: TGGTGGCTACGACGGGATT
B8: UCUUAGG (DNA:RNA)
RNA: B7 RNA with G26C, U29A, A30G, C31G
DNA 1: CAATCTGAATTCCGGTCTCCC
DNA 2: TGGTGGCTACGACGGGATT
B9: UGAAGAC (DNA:RNA)
RNA: B7 RNA with U27A, U28A, U29G
DNA 1: CAATCTGAATTCCGGTCTCCC
DNA 2: TGGTGGCTACGACGGGATT
B10: UAAACAU (DNA:RNA)
RNA: B7 RNA with G26A, U27A, U28A, U29C, C31U
DNA 1: CAATCTGAATTCCGGTCTCCC
DNA 2: TGGTGGCTACGACGGGATT
B11: GACCGUG (DNA:RNA)
RNA: B1 RNA with A25G, C26A, G27C, G28C, C29G, C30U
DNA 1: CAATCTGAATTCCGGTCTCCC
DNA 2: TGGTGGCTACGACGGGATT
B12: UGUGUGG (DNA:RNA)
RNA: B7 RNA with U28G, A30G, C31G
DNA 1: CAATCTGAATTCCGGTCTCCC
DNA 2: TGGTGGCTACGACGGGATT
B13: UUAGGGC (DNA:RNA)
RNA: B7 RNA with G26U, U27A, U28G, U29G, A30G
DNA 1: CAATCTGAATTCCGGTCTCCC
DNA 2: TGGTGGCTACGACGGGATT
B14: CUCACCA (DNA:RNA)
RNA: B1 RNA with A25C, C26U, G27C, G28A, G31A
DNA 1: CAATCTGAATTCCGGTCTCCC
DNA 2: TGGTGGCTACGACGGGATT
B15: AGGGCGA (DNA:RNA)
RNA: B1 RNA with C26G, C30G, G31A
DNA 1: CAATCTGAATTCCGGTCTCCC
DNA 2: TGGTGGCTACGACGGGATT
B16: AUACAUU (DNA:RNA)
RNA: B1 RNA with C26U, G27A, G28C, C29A, C30U, G31U
DNA 1: CAATCTGAATTCCGGTCTCCC
DNA 2: TGGTGGCTACGACGGGATT
B17: UGUCUAA (DNA:RNA)
RNA: B7 RNA with U28C, C31A
DNA 1: CAATCTGAATTCCGGTCTCCC
DNA 2: TGGTGGCTACGACGGGATT
B18: UCCUUUG (DNA:RNA)
RNA: B7 RNA with G26C, U27C, A30U, C31G
DNA 1: CAATCTGAATTCCGGTCTCCC
DNA 2: TGGTGGCTACGACGGGATT
B19: CCACACG (DNA:RNA)
RNA: B1 RNA with A25C, G27A, G28C, C29A
DNA 1: CAATCTGAATTCCGGTCTCCC
DNA 2: TGGTGGCTACGACGGGATT
B20: UAUUACG (DNA:RNA)
RNA: B7 RNA with G26A, U29A, A30C, C31G
DNA 1: CAATCTGAATTCCGGTCTCCC
DNA 2: TGGTGGCTACGACGGGATT
B21: AGUGGCC (DNA:RNA)
RNA: B1 RNA with C26G, G27U, C29G, G31C
DNA 1: CAATCTGAATTCCGGTCTCCC
DNA 2: TGGTGGCTACGACGGGATT
B22: ACCCCAU (DNA:RNA)
RNA: B1 RNA with G27C, G28C, C30A, G31U
DNA 1: CAATCTGAATTCCGGTCTCCC
DNA 2: TGGTGGCTACGACGGGATT
B23: CGUGAAA (DNA:RNA)
RNA: B7 RNA with U25C, U28G, U29A, C31A
DNA 1: CAATCTGAATTCCGGTCTCCC
DNA 2: TGGTGGCTACGACGGGATT
B24: GAGGAGG (DNA:RNA)
RNA: B1 RNA with A25G, C26A, C29A, C30G
DNA 1: CAATCTGAATTCCGGTCTCCC
DNA 2: TGGTGGCTACGACGGGATT
B25: UGUCCGU (DNA:RNA)
RNA: B7 RNA with U28C, U29C, A30G, C31U
DNA 1: CAATCTGAATTCCGGTCTCCC
DNA 2: TGGTGGCTACGACGGGATT
B26: CGCAGAA (DNA:RNA)
RNA: B7 RNA with U25C, U27C, U28A, U29G, C31A
DNA 1: CAATCTGAATTCCGGTCTCCC
DNA 2: TGGTGGCTACGACGGGATT
B27: CCAGCUU (DNA:RNA)
RNA: B1 RNA with A25C, G27A, C30U, G31U
DNA 1: CAATCTGAATTCCGGTCTCCC
DNA 2: TGGTGGCTACGACGGGATT
B28: CUCGCCA (DNA:RNA)
RNA: B1 RNA with A25C, C26U, G27C, G31A
DNA 1: CAATCTGAATTCCGGTCTCCC
DNA 2: TGGTGGCTACGACGGGATT
B29: CUAUUAA (DNA:RNA)
RNA: B7 RNA with U25C, G26U, U27A, C31A
DNA 1: CAATCTGAATTCCGGTCTCCC
DNA 2: TGGTGGCTACGACGGGATT
B30: CAAAGUU (DNA:RNA)
RNA: GGGAGACCGGAAUUCAGAUUGUCCCAAAGUUUUAAAUCCCGUCGUAGCCACCA
DNA 1: CAATCTGAATTCCGGTCTCCC
DNA 2: TGGTGGCTACGACGGGATT
B31: UACUUCC (DNA:RNA)
RNA: B7 RNA with G26A, U27C, A30C
DNA 1: CAATCTGAATTCCGGTCTCCC
DNA 2: TGGTGGCTACGACGGGATT

target: T1, RBFOX1 RRM RbFoxmut (Fox-RRM*); test: EMSA; HiTS-Eq, 1 nM pool, 10 min; buffer printed only for the single-RNA assays: 10 mM Tris pH 7.5, 150 mM NaCl, 3.4 mM EDTA, 0.001% NP-40, 30 C; details: tags: His6 N-terminal (pET28a); label: 5' 32P
Procedure, shortened: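 Purified wild-type or mutant RbFox RRM at increasing concentrations was equilibrated with 1 nM of 5′-radiolabelled RNA carrying 7 randomized nucleotides for 10 min in 50 µL. Unbound RNA was separated by 8% native PAGE and sequenced. Relative association constants came from read-count changes of each RNA species compared with the control reaction, normalised to the cognate motif.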

Binder	binding signal
B1	0.13 KA relative to UGCAUGU
B2	0.0953 KA relative to UGCAUGU
B3	0.111 KA relative to UGCAUGU
B4	0.112 KA relative to UGCAUGU
B5	0.27 KA relative to UGCAUGU
B6	0.0795 KA relative to UGCAUGU
B7	0.103 KA relative to UGCAUGU
B8	0.098 KA relative to UGCAUGU
B9	0.044 KA relative to UGCAUGU
B10	0.0524 KA relative to UGCAUGU
B11	0.144 KA relative to UGCAUGU
B12	0.173 KA relative to UGCAUGU
B13	0.0684 KA relative to UGCAUGU
B14	0.13 KA relative to UGCAUGU
B15	0.0769 KA relative to UGCAUGU
B16	0.0843 KA relative to UGCAUGU

Binder	binding signal
B17	0.0926 KA relative to UGCAUGU
B18	0.108 KA relative to UGCAUGU
B19	0.14 KA relative to UGCAUGU
B20	0.12 KA relative to UGCAUGU
B21	0.195 KA relative to UGCAUGU
B22	0.0864 KA relative to UGCAUGU
B23	0.102 KA relative to UGCAUGU
B24	0.0833 KA relative to UGCAUGU
B25	0.147 KA relative to UGCAUGU
B26	0.111 KA relative to UGCAUGU
B27	0.0742 KA relative to UGCAUGU
B28	0.103 KA relative to UGCAUGU
B29	0.0805 KA relative to UGCAUGU
B30	0.0713 KA relative to UGCAUGU
B31	0.0793 KA relative to UGCAUGU
